In all, about 390,000 compounds went through this assay and about 4,000 (1%) were called active. This list was built around the results that the source calls inconclusive (neither active nor inactive); the mix of calls is not that of the screen. Calls come from the whole dose curve; as a rule, active = well fitted inhibition curve with a large enough effect; inconclusive = small, poorly fitted or top-dose-only effect; inactive = no such curve, though single readings can be large or run the other way. A potency beside an inconclusive call is a rough fit, not a confirmed value.
Biological target: Thioredoxin reductase 1, cytoplasmic (Rattus norvegicus) (UniProt O89049)
Assay: qHTS Assay for Inhibitors of Mammalian Selenoprotein Thioredoxin Reductase 1 (TrxR1): qHTS; note: nearly all actives have a fitted effect of over 65% in size
Settings: recombinant rTrxR1, NADPH fluorescence consumption, selenite substrate; series mostly up to 114 µM; activity change, negative = inhibition: at the top concentration
In short: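 Rat TrxR1 (90 nM in the dispensed reagent) was pre-reduced with 400 uM NADPH for 5 min at room temperature, then incubated with compound for 15 min. After 400 uM selenite was added, NADPH fluorescence (Ex 340/Em 450 nm) was followed for 8 min.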
% is set by controls: 0 for no effect and ±100 for the full control effect; potency is the fitted concentration of half-maximal effect; tags give direction and shape of the fitted curve.

Sequence of UniProt O89049 (O89049 whole entry, looked up): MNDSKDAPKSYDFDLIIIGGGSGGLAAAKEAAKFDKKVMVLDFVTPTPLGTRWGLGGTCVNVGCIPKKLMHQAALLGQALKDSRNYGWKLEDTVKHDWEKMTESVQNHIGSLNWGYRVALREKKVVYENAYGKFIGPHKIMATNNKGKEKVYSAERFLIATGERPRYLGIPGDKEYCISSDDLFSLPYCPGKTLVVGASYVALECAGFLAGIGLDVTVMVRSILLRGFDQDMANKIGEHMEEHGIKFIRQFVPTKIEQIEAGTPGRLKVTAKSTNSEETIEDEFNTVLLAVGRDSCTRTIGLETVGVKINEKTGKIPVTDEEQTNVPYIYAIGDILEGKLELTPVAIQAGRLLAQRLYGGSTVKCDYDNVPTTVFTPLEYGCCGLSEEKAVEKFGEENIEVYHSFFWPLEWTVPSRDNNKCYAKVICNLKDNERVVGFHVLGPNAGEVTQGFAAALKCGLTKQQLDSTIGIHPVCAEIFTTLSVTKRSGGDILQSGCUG

| SMILES | Potency | activity change, negative = inhibition |
| --- | --- | --- |
| CCn1cc(-c2cc(C(=O)O)c3ccccc3n2)c(C)n1 | inconclusive: 28.2 µM [inhibitor, full curve] | – |
| O=C(O)CCS(=O)(=O)c1nc(-c2cccs2)cc(C(F)(F)F)n1 | inconclusive: 31.6 µM [inhibitor, partial curve] | – |
| O=[N+]([O-])CC(=Nc1ccc(Cl)cc1)N/N=C\c1oc(O)c2ccccc12 | inconclusive: 25.1 µM [inhibitor, single point] | – |
| Cc1ccccc1C(=O)N1CCC(C(=O)N2CCN(c3ncccn3)CC2)CC1 | – | inactive: 9.21% |
| C=CCSc1nnc(Cc2cc(=O)[nH]c(=O)[nH]2)n1-c1cc(C)ccc1C | inconclusive: 28.2 µM [inhibitor, single point] | – |
| Cc1cc(N2C(=O)CC(N3CCN(C(c4ccccc4)c4ccccc4)CC3)C2=O)no1 (stereo not drawn) | inconclusive: 3.98 µM [inhibitor, partial curve, poor fit] | – |
| COc1cc(NC(=O)C2CCCCC2)c(OC)cc1NC(=O)CN1CCCCC1 | – | inactive: -1.46% |
| CCCCOc1cccc(C(=O)N2CCN(CCc3ccncc3)CC2)c1 | inconclusive: 25.1 µM [inhibitor, full curve] | – |
| O=c1cc(-c2ccc(F)cc2)oc2ccccc12 | – | inactive: 8% |
| Cc1nc(N)nc(N)c1-c1ccc([N+](=O)[O-])cc1 | – | inactive: 12.2% [at 11.4 µM] |
| Cc1cc(=O)[nH]c(N/N=C/c2cccs2)n1 | inconclusive: 89.1 µM [inhibitor, single point] | – |
| COc1ccc2nc(Nc3sc4c(c3C(N)=O)CCCC4)sc2c1 | active: 14.1 µM | – |
| O=P1(Nn2cnnc2)C=C(c2ccccc2)OC(c2ccccc2)=C1 | – | inactive: 13.2% |
| Cc1ccc(CN2CCC(Oc3cccc(C(=O)NCc4cccnc4)c3)CC2)o1 | inconclusive: 56.2 µM [inhibitor, partial curve] | – |
| COc1ccc(S(=O)(=O)N/N=C\c2ccc([N+](=O)[O-])o2)c(OC)c1 | active: 35.5 µM | – |
| C#CCOCCOCCOCCNc1nc(N2CCN(C(=O)[C@H](Cc3ccc(O)cc3)n3cc([C@@H](N)CC(C)C)nn3)CC2)nc(N2CCN(C(=O)[C@H](Cc3cc4ccccc4[nH]3)n3cc([C@@H](N)CC(C)C)nn3)CC2)n1 | inconclusive: 44.7 µM [inhibitor, partial curve] | – |
| O=C(/C=C/c1ccc([N+](=O)[O-])o1)NNC(=O)c1ccc(F)cc1 | active: 3.16 µM | – |
| CN(CCC1CCOCC1)C(=O)CC1C(=O)NCCN1Cc1cccc(F)c1 (stereo not drawn) | inconclusive: 28.2 µM [inhibitor, full curve] | – |
| O=C(Nc1ccccc1C(=O)N/N=C/c1ccco1)c1ccccc1 | – | inactive: -0.817% |
| COc1ccccc1NC(=O)c1ccccc1NC(=O)c1cc(Cl)ccc1NC(=O)c1ccco1 | inconclusive: 79.4 µM [inhibitor, single point] | – |
| N#C/C(=C/c1ccncc1)c1nc2ccccc2s1 | inconclusive: 79.4 µM [inhibitor, single point] | – |
| CCOc1ccccc1NC(=O)Cn1c(=O)n(Cc2cccs2)c(=O)c2cccnc21 | – | inactive: 9.97% |
| Cc1cc(C)cc(C(=O)NC(=S)Nc2ccc(Cc3ccncc3)cc2)c1 | inconclusive: 17.8 µM [inhibitor, full curve] | – |
| Fc1cccc(CSc2ccc(-c3ccco3)nn2)c1 | inconclusive: 50.1 µM [inhibitor, partial curve] | – |
| COc1ccc(C(=O)Nc2nc3n(n2)C(c2ccc(Cl)cc2)C=C(c2ccccc2)N3)cc1OC (stereo not drawn) | inconclusive: 28.2 µM [inhibitor, full curve] | – |

| SMILES | Potency | activity change, negative = inhibition |
| --- | --- | --- |
| Cc1cc(Cl)ccc1N1C(=O)CC(NNC(=O)c2cccnc2)C1=O (stereo not drawn) | – | inactive: 13.5% |
| O=C(CSc1nnc(-c2ccco2)o1)c1ccccc1Cl | inconclusive: 39.8 µM [inhibitor, single point] | – |
| CCN1CCN(C(=O)C(C)N(c2ccc(C)cc2)S(C)(=O)=O)CC1 (stereo not drawn) | – | inactive: 3.19% [at 57.1 µM] |
| CCC(=O)Nc1c(-c2cccs2)c(=O)c2ccccc2n1C | – | inactive: -0.447% |
| Oc1ccccc1-c1nc(N2CCN(Cc3ccccc3)CC2)c2ccccc2n1 | inconclusive: 89.1 µM [inhibitor, single point] | – |
| Cc1sc(NC(=S)NC(=O)c2cccs2)nc1-c1ccc(CC(C)C)cc1 | – | inactive: 16.1% |
| CCOCCCn1c(=O)c(NC(=O)c2ccc(OCC)cc2)c2n(c1=S)CCCCC2 | – | inactive: -2.82% |
| COc1cc2ccccc2cc1C(=O)NC(=S)Nc1ccc(C(=O)O)cc1 | inconclusive: 79.4 µM [inhibitor, partial curve] | – |
| Cc1ccc(OCCOCCN2CCN(C)CC2)c(C(C)(C)C)c1 | – | inactive: 11.5% |
| COCCCn1c(SCC(=O)N2CCOCC2)nnc1-c1ccco1 | inconclusive: 14.1 µM [inhibitor, full curve, poor fit] | – |
| N#Cc1c(-c2ccco2)cc(-c2ccccn2)nc1N | inconclusive: 31.6 µM [inhibitor, single point] | – |
| CCOC(=O)C1=C(C2=CCCCC2)c2ccc(OC)cc2N(S(=O)(=O)C(F)(F)F)C1C(=O)OCC (stereo not drawn) | inconclusive: 8.91 µM [inhibitor, full curve] | – |
| CCc1nnc(NC(=O)c2nc(SCc3ccccc3F)ncc2Cl)s1 | – | inactive: 8.59% |
| O=S(=O)(Nc1ccc(O)c(NS(=O)(=O)c2ccccc2)c1)c1ccccc1 | inconclusive: 79.4 µM [inhibitor, partial curve, poor fit] | – |
| CCS(=O)(=O)C1=NSC2=NC(=O)/C(=C\c3ccc(OC(=O)c4ccco4)c(OC)c3)C(=N)N21 | inconclusive: 39.8 µM [inhibitor, partial curve] | – |
| O=C(CSc1ncccn1)NCc1cccc(Cl)c1 | – | inactive: 18.1% |
| CCCCNC(=S)N/N=C1\C(=O)c2cccc3cccc1c23 | – | inactive: -1.63% |
| O=C(O)c1c(Br)c(Br)c(Br)c(Br)c1C1c2ccc(O)cc2Oc2cc(O)ccc21 | inconclusive: 56.2 µM [inhibitor, partial curve, poor fit] | – |
| NC(=O)c1c(NC(=O)c2cc3ccccc3o2)sc2c1CCC2 | inconclusive: 22.4 µM [inhibitor, single point] | – |
| CCOC(=O)c1c(C)n(CC)c2ccc(OC(=O)c3ccc([N+](=O)[O-])cc3)cc12 | – | inactive: 29.9% |
| CC(=O)N1CCC(N(Cc2ccco2)C(=O)Nc2ccc(C)c(Cl)c2)CC1 | – | inactive: -5.01% |
| O=[N+]([O-])c1cc2c(cc1CN1CCN(CCOCCO)CC1)OCO2 | inconclusive: 56.2 µM [inhibitor, partial curve] | – |
| Cc1cccc(C)c1-n1ncc(C(=O)NC2CCCC2)c1C1CCN(C(=O)OC(C)(C)C)CC1 | – | inactive: 7.89% |
| CCOC(=O)N1CCN(C(=O)C(CC(C)C)NS(=O)(=O)c2ccc(C)cc2)CC1 (stereo not drawn) | – | inactive: 9.25% |
| CSc1nc(=O)[nH]c2nc[nH]c12 | – | inactive: 12.6% |

| SMILES | Potency | activity change, negative = inhibition |
| --- | --- | --- |
| CC/C=C(/NC(C)=O)c1ccccc1 | inconclusive: 5.62 µM [inhibitor, full curve, poor fit] | – |
| CCn1c(SCC(=O)c2ccc(F)cc2)nnc1-c1ccoc1C | inconclusive: 31.6 µM [inhibitor, single point] | – |
| N#C/C(=C\c1ccc2c(c1)OCO2)C(N)=S | inconclusive: 79.4 µM [inhibitor, partial curve, poor fit] | – |
| CCc1ccccc1NC1=NCC(=O)N1C1CCCC1 | – | inactive: 5.99% |
| CCOC(=O)/C(C#N)=C/C1=C(N2CCOCC2)CC(C)(C)OC1 | inconclusive: 22.4 µM [inhibitor, full curve] | – |
| COC(=O)N1C(=O)[C@@](c2ccccc2)(C2CCCCC2)N1C(=O)OC | active: 44.7 µM | – |
| COc1ccc(/C=C2\C=Cc3ccccc32)cc1 | – | inactive: 1.82% |
| CCCOc1ccc(C2C(=O)N(C3CCCCCC3)CC(=O)N2CCC)cc1OC (stereo not drawn) | – | inactive: 0.0358% [at 57.1 µM] |
| Cc1snc(S(=O)(=O)/C(C#N)=N/Nc2cccc(C(F)(F)F)c2)c1C#N | – | inactive: -23.7% [at 57.1 µM] |
| CCOC(=O)C1CCN(c2cc(=O)n(Cc3ccc(F)cc3)c(=O)[nH]2)CC1 | inconclusive: 7.08 µM [inhibitor, partial curve] | – |
| COc1ccc2[nH]cc(CCNC(=O)COc3cc(C)cc4oc(=O)cc(C)c34)c2c1 | inconclusive: 79.4 µM [inhibitor, single point] | – |
| Cc1ccccc1/C=N/Nc1nc2ccccc2[nH]1 | – | inactive: 4.14% [at 57.1 µM] |
| CCOc1ccccc1-n1c(SCC(N)=O)nnc1-c1ccc(O)cc1 | – | inactive: 16.4% |
| Cc1oc(-c2ccc(Cl)cc2)nc1CN1CCCN(C(=O)c2ccco2)CC1 | inconclusive: 56.2 µM [inhibitor, partial curve] | – |
| Cc1ccc(NC(=S)NC(=O)C2CCC2)cc1C | active: 50.1 µM | – |
| CS(=O)(=O)NCCSCc1ccco1 | inconclusive: 12.6 µM [inhibitor, full curve] | – |
| NNC(=O)c1cc(O)c(O)c(O)c1 | – | inactive: -16.9% [at 57.1 µM] |
| CSc1nc(SCC(=O)O)c2sc3nc(-c4ccccc4)c4c(c3c2n1)CCC4 | inconclusive: 63.1 µM [inhibitor, partial curve, poor fit] | – |
| O=C(CN(c1ccccc1)S(=O)(=O)c1ccccc1)NCCSCc1ccco1 | inconclusive: 70.8 µM [inhibitor, single point] | – |
| O=C(c1ccc(NC(=S)NCc2ccc(Cl)cc2)cc1)N1CCCCC1 | inconclusive: 89.1 µM [inhibitor, partial curve, poor fit] | – |
| Cc1cccn2c(=O)nc(SCC(=O)NCc3ccco3)nc12 | inconclusive: 79.4 µM [inhibitor, single point] | – |
| O=C(N/N=C(\c1ccccc1)c1ccccn1)c1cccc([N+](=O)[O-])c1 | – | inactive: -7.43% [at 57.1 µM] |
| CN1CCN(C(=O)/C(C#N)=C/c2ccc(OC(F)F)cc2)CC1 | inconclusive: 50.1 µM [inhibitor, partial curve, poor fit] | – |

— PubChem BioAssay AID588453 (National Center for Advancing Translational Sciences (NCATS), 2011)
